Hit rate of the full screen: of about 45,000 compounds, about 200 (0.44%) were called active. Another 7% or so got no clear call; they are omitted. Calls follow the shape of the dose curve; as a rule, active = well fitted activation curve with a large enough effect; inconclusive = small, poorly fitted or top-dose-only effect; inactive = no such curve, though single readings can be large or run the other way. The list shows a part of the results.
Experiment: qHTS of TDP-43 Inhibitors: NCGC Sytravon Library Screen; also: nearly all actives have a fitted effect of over 55% in size; as to growth rescue (activation): 0% is about no effect
Conditions: yeast TDP-43 toxicity rescue, BacTiter-Glo growth, 24 h; series mostly up to 46.1 µM; growth rescue (activation): at the top concentration
Summary of the method: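 TDP-43-expressing yeast, pregrown in raffinose, seeded at OD600 0.02 in galactose medium with compound for 24 hr at 30 deg C. Growth read by BacTiter-Glo luminescence, so rescue of toxicity appears as activation.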
Potency is read from the fitted curve at half-maximal effect.

Structure (SMILES) | growth rescue (activation) | Potency
O=c1cc(CN2CCN(c3cccc(Cl)c3)CC2)c2cc(O)c(-c3ccccc3)cc2o1 | inactive: 5.18% | 
COc1ccc(NC(=O)c2cc(-c3ccccc3O)n[nH]2)cc1Cl | inactive: -8.87% | 
COCCNC(=O)CCc1c(C)nc2c(c(C)nn2-c2ccc(C)cc2)c1C | inactive: 26.9% | 
COc1ccc(OC)c(C2=Nn3c(nnc3-c3cc(C)[nH]n3)SC2)c1 | inactive: 11.4% | 
O=C(Nc1nncs1)c1cc(-c2ccncc2)nc2ccc(Cl)cc12 | inactive: 10.2% | 
COc1ccc(CCNC(=O)COc2ccc(S(=O)(=O)NC3CCCCC3)cc2Cl)cc1OC | inactive: 12% | 
Cc1cccc(N(C(=O)c2snc(C(N)=O)c2N)C(C(=O)NC2CCCC2)c2ccco2)c1 (stereo not drawn) | inactive: 2.01% | 
CN(C(=O)c1cccc(COc2ccc(Cl)cc2Cl)c1)c1ccccc1 | inactive: 22.1% | 
O=C(O)C#Cc1cccc2ccccc12 | inactive: -2.91% | 
COc1cccc(CN(CC(=O)NC2CCCC2)C(=O)CCC(=O)Nc2cc(C)on2)c1 | inactive: 26% | 
CNC(=O)NC(=O)COC(=O)c1ccc(-n2c(C)ccc2C)cc1 | inactive: 19.2% | 
CCOC(=O)CC1C(=O)NCCN1S(=O)(=O)c1ccc(OC)cc1 (stereo not drawn) | inactive: 6.17% | 
O=S(=O)(Nc1ccc(F)cc1)c1ccc(NS(=O)(=O)c2cccs2)cc1 | inactive: 4.33% | 
Cc1ccc(C(NC(=O)c2ccccc2S(C)(=O)=O)c2ccccc2)cc1 (stereo not drawn) | inactive: 5.55% | 
CCN(Cc1ccccc1)C(=O)CSc1n[nH]c(N)n1 | inactive: 3.87% | 
COc1cc2c(cc1OC)C1(CCCCC1)CN(C)C2 | inactive: -1.62% | 
COc1cc(OC)cc(C(=O)OCC(=O)Nc2cccc(S(=O)(=O)NC3=NCCCCC3)c2)c1 | inactive: 17.1% | 
COc1ccc(C(=O)NCCSCc2ccccc2)cc1OC | inactive: 27.4% | 
CCCC(=O)N1CCC1(C)C(=O)Nc1ccc2nccnc2c1 (stereo not drawn) | inactive: 10.2% | 
COc1cccc(NC(=O)Cn2c(=O)n(CC(=O)NCc3ccc(C)cc3)c(=O)c3sccc32)c1 | inactive: -3.59% | 
O=C(NCc1ccc(Cl)nc1)c1ccc2sc([C@@H]3O[C@H](CO)[C@H](O)[C@H](O)[C@H]3O)nc2c1 | inactive: 9.19% | 
COc1ccc(NC(=O)C(c2ccccc2)c2ccccc2)cn1 | inactive: 22.8% | 
O=C(COC(=O)c1ccc2c(c1)C(=O)N(CCc1ccccc1)C2=O)Nc1ccc(OC(F)F)cc1 | inactive: -5.48% | 
Cc1cccc(Cn2cc3c(=O)n(Cc4cccc(F)c4)nc-3c3ccccc32)c1 | inactive: 8.05% | 
COc1cc(-c2cc3nc4ccccc4n3c(N)c2C#N)cc(OC)c1OC | inactive: -13.8% | 
Cc1ccc(/C=C/C(=O)Nc2ccc(S(N)(=O)=O)cc2)o1 | inactive: 0.286% | 

Structure (SMILES) | growth rescue (activation) | Potency
O=C(Nc1ccnn1C1CCN(C/C=C/c2ccccc2)CC1)c1ccccc1Cl | inactive: 6.07% | 
COc1ccc(Cc2[nH]n3c(=O)cc(C(C)C)nc3c2-c2ccccc2)cc1 | inactive: -3.67% | 
O=C(Nc1ncc([N+](=O)[O-])s1)C1CC(=O)N(c2ccc(F)cc2)C1 (stereo not drawn) | inactive: 1.7% | 
CSCCC1NC(=O)N(CC(=O)Nc2ccc(Cl)c(S(=O)(=O)N3CCOCC3)c2)C1=O (stereo not drawn) | inactive: -21.3% | 
Cc1cc(C)c(Cn2c3ccccc3c3cnn(CC(=O)NCc4ccccn4)c(=O)c32)c(C)c1 | inactive: -1.83% | 
CC(=O)c1ccc(N=C2C(=O)Nc3ccccc32)cc1 | inactive: 1.46% | 
O=[N+]([O-])c1cccc(C(=Nc2ccccc2)NO)c1 | inactive: 23.4% | 
O=C(Cc1ccccc1)NN1C(=O)C2C3C=CC(C3)[C@@H]2C1=O (stereo partly drawn) | inactive: 9.47% | 
COc1ccc(NC(=O)CS(=O)CC(=O)Nc2cccc3cccnc23)cc1 (stereo not drawn) | inactive: 10.6% | 
COc1ccccc1CC1S/C(=N/N=C/c2ccco2)NC1=O (stereo not drawn) | inactive: 0.935% | 
COc1ccc(CNC(=O)c2sc3nc4c(c(C(F)(F)F)c3c2N)CCC4)cc1OC | inactive: 8.29% | 
CN(C)C(=O)CSc1nc(-c2cccs2)c(-c2cccs2)[nH]1 | inactive: 4.06% | 
Cc1ccc(CNC(=O)COC(=O)c2cc3c(s2)CCC(C)C3)cc1 (stereo not drawn) | inactive: -1.98% | 
O=C(CSc1nnc(CN2CCCC2)n1-c1ccccc1)c1ccc2c(c1)OCO2 | inactive: 16.1% | 
CC(C)N1CCC(N2CCN(Cc3ccc4nonc4c3)CC2CCO)CC1 (stereo not drawn) | inactive: 26.1% | 
CCN(CC)S(=O)(=O)c1ccc(NS(=O)(=O)c2ccc(OC)c([N+](=O)[O-])c2)cc1 | inactive: -14% | 
CC(C)COc1ccc(C/C(N)=N/n2cnnc2)cc1 | inactive: 12.6% | 
Cc1nn(CC(=O)c2ccc3c(c2)OCCO3)c(=O)c(C#N)c1C | inactive: 8.66% | 
Cc1c(NC(=O)c2c(O)c3ccccc3n(C)c2=O)c(=O)n(-c2ccccc2)n1C | inactive: -5.51% | 
COCCNC(=O)C(C(=O)c1ccc(F)cc1)n1cc(C)ccc1=O (stereo not drawn) | inactive: 4.37% | 
CC(=O)Nc1ccc(C(=O)N/C(=C\c2ccccc2)C(=O)Nc2cccc(C(=O)O)c2)cc1 | inactive: 9.34% | 
CN(c1ccccc1)S(=O)(=O)c1cccc(NC(=O)CSc2ncn[nH]2)c1 | inactive: -9.09% | 
O=C(NCc1ccccn1)NC1CCCCC1 | inactive: 15% | 
O=C(Nc1ccc2c(c1)OCO2)C1CC(=O)N(c2ccccc2)C1 (stereo not drawn) | inactive: -5.44% | 
O=[N+]([O-])c1cnn(-c2nc(-c3ccco3)cc(C(F)(F)F)n2)c1 | inactive: -3.17% | 
O=C(O)c1cccc(N2C(=O)c3cccc4c(Cl)ccc(c34)C2=O)c1 | inactive: -3.25% | 

Structure (SMILES) | growth rescue (activation) | Potency
Cc1nn(C)cc1C(C(=O)NC1CCCCC1)N(C(=O)Cc1cccs1)c1ccc(Cl)cc1 (stereo not drawn) | inactive: -11.7% | 
CCOc1ccc(N2CC(C(=O)Nc3ccc(F)cc3F)CC2=O)cc1 (stereo not drawn) | inactive: 15.3% | 
COc1cc(OC)c(N(C)S(=O)(=O)c2cccc(C(=O)OCC(=O)N3CCOCC3)c2)cc1Cl | inactive: 24.5% | 
Cc1cc(C(=O)COC(=O)c2ccc3c(c2)NC(=O)CS3)c(C)n1CCc1ccc(Cl)cc1 | inactive: 4.71% | 
COc1ccccc1OCC(=O)NCC1CCCN(C(=O)c2ccccc2C(C)=O)C1 (stereo not drawn) | inactive: 3.06% | 
CCNC(=O)COc1ccc(/C=N/NC(=O)c2cccnc2)cc1OC | inactive: 1.35% | 
Cc1ccc(S(=O)(=O)NC(=O)NCCc2ccccc2)cc1 | inactive: 20.9% | 
CSc1snnc1-c1ccccc1 | inactive: 10.5% | 
CC1=CC(C)(C)[N+](C)(C)c2ccc(C)cc21 | inactive: -7.04% | 
CC(C)(C)c1ccc(CC(=O)N2CCC2(C)C(=O)NS(=O)(=O)c2cccc(F)c2)cc1 (stereo not drawn) | inactive: 9.99% | 
COc1cccc(CC2(CO)CCN(Cc3cn(C)nc3C)CC2)c1 | inactive: 7.23% | 
C=C(C)/C=N/NC(=S)Nc1ccc(S(=O)(=O)N2CCOCC2)cc1 | inactive: 7.15% | 
CCOC(=O)C1CCCN(S(=O)(=O)c2ccc(-n3cnnn3)c(C)c2)C1 (stereo not drawn) | inactive: 0.582% | 
Cc1cccc(C(=O)Nc2ccc(C(=O)N/N=C/c3cccnc3)cc2)c1 | inactive: 5.84% | 
COc1ccc(N2CCN(S(=O)(=O)c3ccc(-n4cnnn4)c(C)c3)CC2)cc1 | inactive: 3.5% | 
Cc1ccc(C(C)C)c(OCC(=O)NNC(=O)Cc2ccc(S(=O)(=O)N3CCOCC3)s2)c1 | inactive: 18% | 
CN(CC(=O)NCc1ccncc1)S(=O)(=O)c1cc(Cl)ccc1Cl | inactive: -3.95% | 
O=C(CSc1nc2ccccc2o1)N/N=C/c1ccccc1 | inactive: -0.393% | 
O=C(CCCC(=O)Nc1cccnc1)Nc1cccnc1 | inactive: -16.5% | 
COc1cccc(NC(=O)c2cccc(N3C(=O)C4CCC(C)CC4C3=O)c2)c1 (stereo not drawn) | inactive: 13.2% | 
O=C(COC(=O)CNC(=O)c1ccc(Cl)cc1Cl)NNC(=O)c1ccccc1F | inactive: -0.387% | 
O=C1Nc2ccccc2/C1=C/c1ccccc1F | inactive: 9.89% | 
c1ccc(-n2nnnc2Cc2nnnn2-c2ccccc2)cc1 | inactive: 8.9% | 
CCc1nc2ccc(C(=O)N3CCCC(C(N)=O)C3)cn2c1N(C=O)CC (stereo not drawn) | inactive: 5.44% | 
COc1cccc(CN2CCC(C(=O)NC(C)c3cccc4ccccc34)CC2)c1 (stereo not drawn) | inactive: -9.87% | 
COc1cc(Cl)c(C)cc1NC(C)C(=O)Nc1cc(C(F)(F)F)ccc1N1CCOCC1 (stereo not drawn) | inactive: 11.4% | 

Structure (SMILES) | growth rescue (activation) | Potency
COc1cccc(/C=N/NC(=O)c2nc(-c3ccccc3)cc(-c3ccccc3)n2)c1O |  | active: 12.6 µM
COCCNC(=O)/C(C#N)=C/c1ccc(-c2ccc(OC)cc2[N+](=O)[O-])o1 | inactive: 10.8% | 
COc1ccc(CCNC(N)=S)cc1OC | inactive: -18.5% | 
CCOc1cnc(-c2c(-c3c(Cl)cccc3Cl)noc2C)o1 | inactive: -28% | 
Cn1ccc(-c2cc(C(=O)O)c3ccccc3n2)n1 | inactive: 12.2% | 
COc1ccccc1NC(=S)NC1CCCCC1 | inactive: 36.2% | 
CC1CCN(CCC(=O)Nc2nccs2)CC1 | inactive: 0.853% | 
CCc1ccccc1N(C(=O)c1snc(C(N)=O)c1N)C(C(=O)NCC1CCCO1)c1c[nH]c2ccccc12 (stereo not drawn) | inactive: 15.8% | 
c1cc(-c2cnc3cccnn23)c2cccnc2c1 | inactive: -7.82% | 
CCc1ccc(N(CC(=O)NC2CC2)S(=O)(=O)c2ccc(C)cc2)cc1 | inactive: 13.6% | 
O=C(CSc1nnnn1-c1ccccc1)NCCCN1CCCC1=O | inactive: -1.57% | 
COc1cc(OC)cc(C(=O)Nc2sc3c(c2C(N)=O)CCC3)c1 | inactive: -77.1% | 
CC(=O)NS(=O)(=O)c1ccc(NC(=O)c2ccc(Cl)cc2[N+](=O)[O-])cc1 | inactive: 11% | 
CCn1c(C)nc2cc(C(=O)NNC(=S)NC(=O)c3ccccc3)ccc21 | inactive: -14.4% | 
COc1ccc(-c2nc3c4cnn(-c5ccccc5F)c4ncn3n2)cc1 | inactive: 3.95% | 
O=C(c1ccc(Cl)c(S(=O)(=O)N2CCCCCC2)c1)N1CCCC1 | inactive: 15.4% | 
CCOC(=O)C1=C(C)NC(SCC(N)=O)=C(C#N)C1c1cccs1 (stereo not drawn) | inactive: -20.4% | 
CC(CC(=O)Nc1ccc2c(c1)c(=O)n(C)n2Cc1ccc(Cl)cc1)C(F)(F)F (stereo not drawn) | inactive: 0.348% | 
CCN(CC)S(=O)(=O)c1ccc(-c2nnc(SCC(=O)N3c4ccccc4CC3C)n2CC)cc1 (stereo not drawn) | inactive: -20.9% | 
Cc1ccc(C)c(S(=O)(=O)Nc2ccc(C(N)=O)cc2)c1 | inactive: -1.28% | 
COc1ccccc1-n1c(C)nc2cc(C(=O)NCc3ccc4c(c3)OCO4)ccc21 | inactive: -4.77% | 
COc1ccc(/C=N/Nc2cn[nH]c(=O)c2Cl)cc1 | inactive: 1.52% | 
CCN(Cc1ccccc1)C(=O)C(C)OC(=O)c1cc(S(=O)(=O)Nc2c(C)n(C)n(-c3ccccc3)c2=O)ccc1C (stereo not drawn) | inactive: -1.85% | 
CCc1nc2ccc(C(=O)NCc3cccs3)cn2c1N(CC)CCOC | inactive: 16% | 
Cc1ccc2c(c1)cc(C(=O)N[C@@H](Cc1ccccc1)C(=O)O)n2C | inactive: -33% | 

— PubChem BioAssay AID1347073 (National Center for Advancing Translational Sciences (NCATS), 2019)
